# The supplement of paper PMC7826260
# The list shows a part of the results. Each Rep nickase domain was tested in vitro on the same pool of single strands (3 µM enzyme, 1 h, 37 °C); shown is the middle of each 90-letter strand. Uncut reads are compared with the no-enzyme pool on a log2 scale; more negative means more cut, near 0 not cut, and no call is made. Counts are relative to all reads; where an enzyme cuts many sequences, the uncut ones exceed 0.
# Test system: T1, Rep nickase domain of maize striate mosaic virus
# T1 sequence (protein, residues 1-117, tag omitted): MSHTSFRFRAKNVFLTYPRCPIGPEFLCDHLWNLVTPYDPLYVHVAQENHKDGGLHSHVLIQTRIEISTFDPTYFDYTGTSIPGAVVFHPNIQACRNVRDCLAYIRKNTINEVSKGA
# Assay: uncleaved DNA left, log2 of reads against the no-enzyme library (log2 ratio); higher = less cleavage (more negative = more Rep cleavage of the k-mer); sequences stand for … in CTCGTCCG…ACCGGAGA
# Procedure: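 A pool of 90-nt single-stranded DNAs with seven random bases just before the constant AC of the nick site (name = the seven bases) was cut by 3 µM recombinant His6-SUMO-tagged Rep nickase domain (300 nM DNA, 50 mM HEPES pH 8.0, 50 mM NaCl, 1 mM MnCl2, 1 h, 37 °C, three replicates). Uncut DNA was amplified and sequenced.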
row,Sequence,uncleaved DNA left (log2)
1,TCTAGCG,-0.702
2,TATCAAA,-0.0358
3,CTTTGAA,-1.07
4,AATGGGA,0.481
5,CCGCACT,-0.323
6,CTAGCTA,-0.475
7,TCGTTGC,-1.12
8,CCTACCC,-0.433
9,TAGAGCG,-1.13
10,GAAGGGG,0.638
11,ACGTAGA,-0.772
12,TGTCTAG,-1.22
13,CGGGACG,1.79
14,CTCGCAC,-0.831
15,TGAATGT,0.316
16,AATGCAT,-0.225
17,ACCACAA,-0.949
18,CGTCGAT,0.131
19,GGTAGGC,1.65
20,GTTCGAC,1.34

row,Sequence,uncleaved DNA left (log2)
1,CGGCTGA,1.69
2,CCTGCAG,-1.29
3,GCCAGTA,0.108
4,CTAGGCC,-0.238
5,GCCGCCC,0.00246
6,TATGTCT,-1.04
7,CGAGATT,-0.078
8,TCTAACC,-0.522
9,ATCGCGG,-0.18
10,AGGAGAA,1.2
11,GGCGATG,1.64
12,GATATTT,1.14
13,AGTAATG,0.928
14,GCTAGTA,0.176
15,TGCCGGA,0.0629
16,GTCTAAG,0.625
17,CCTCTTC,-0.569
18,CCACTGA,0.44
19,ATGACGG,1.24
20,CAGAGTC,-0.715
